Among the data in PubChem BioAssay (NCI) are TGI and GI50 values, retold here.

The structures appear in SMILES notation.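 Results reflect a 48-hour exposure of cells in 96-well plates to compound at five concentrations. Abbreviation: GI50, concentration required for 50% inhibition of growth. TGI is the concentration that stops growth completely.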

This assay concerns NCI-H322M lung. Nature of the assay: NCI-60 cell line screen, 48 h.
Turning to `Cn1c2ccccc2c(=O)c2ccc(Cl)cc21`, the TGI was over 10 µM.

For the molecule `CCCCN=C(c1ccccc1)N1CCOCC1`, the TGI was over 100 µM.

`Nc1ccc(S(=O)(=O)Nc2nccs2)cc1`: the TGI is over 100 µM.

In turn, `Clc1ccc(C=Nc2ccc3c(c2)Cc2ccccc2-3)c(Cl)c1` gave a TGI of over 100 µM.

Consider `C[C@]12CC[C@@H]3c4cc(OCC(F)(F)F)c(O)cc4/C(=N/O)C[C@H]3[C@@H]1CC[C@@H]2O`, for which the GI50 was 0.0748 µM and the TGI came to 39.2 µM.

Consider `C#Cc1c(I)n(C2OC(CO[Si](C)(C)C(C)(C)C)C3OC(C)(C)OC32)c(=O)[nH]c1=O` (configuration not stated), for which the GI50 was 30.4 µM and the TGI is 97.9 µM.

With `CN(C)C(=O)[C@H](O)[C@H](Cc1ccccc1)NC(=O)c1cc2cc(Cl)ccc2[nH]1`, the GI50 is 25.6 µM and the TGI is over 100 µM.

Consider `CC1=C[C@H]2c3c(c(O)c(O)c4oc(-c5ccccc5)cc(=O)c34)[C@H](c3cc(O)c(O)c4oc(-c5ccccc5)cc(=O)c34)[C@H]2C(C)(C)C1`, for which the GI50 is 1.56 µM and the TGI was 10.5 µM.

In turn, `CCN(CC)c1ccc(N=Nc2ccc(-c3nc4ccc[n+](C)c4s3)cc2)cc1` displayed a TGI of 26.7 µM.

`C=CCOc1ccc(C2(O)c3ccccc3C3=NCCCN32)cc1` (configuration not stated): the TGI was over 100 µM.

`COc1ccc(N2C(=O)CSC2c2c[nH]c3ccccc23)cc1` (configuration not stated) yielded a TGI of over 100 µM.

Molecule `Cc1cc(NCc2ccccc2)c2ccccc2[n+]1CCCCCCCCCC[n+]1c(C)cc(NCc2ccccc2)c2ccccc21` had a TGI of 3.84 µM.

In the case of `Nc1ccn(C2CCC(CO)O2)c(=O)n1` (configuration not stated), the GI50 was over 1000 µM and the TGI was over 1000 µM.

On to `S=C1OC2CCCC[C@H]2O1` (some centres not stated), for which the TGI is over 100 µM.

In turn, `CC(C(O)Cc1ccccc1)N(C)N=Nc1ccc([N+](=O)[O-])cc1` (configuration not stated) had a TGI of 81 µM.

As to `C=C1CCC(CC[C@@H]2CC[C@]3(OC2)O[C@@]2(O)CC[C@]3(C)OC2(C)C)C(C)(C)[C@H]1C/C=C1/C(=O)OC[C@@H]1O` (some centres not stated), the TGI was 17.2 µM.

On to `CC1=CC(C/C(C)=C/COc2ccc3ccc(=O)oc3c2)OC1=O` (configuration not stated), for which the TGI was over 100 µM.

Turning to `NNC(=O)CSc1nc2ccccc2c(=O)n1N`, the TGI was over 100 µM.

The molecule `CC(C)(Cl)C(Br)CCC(=CCCl)CBr` (mixture of isomers) gave a TGI of 11.8 µM.

Regarding `CC12CCC(O)CC1CCC1C2CCC2(C)C(C(=O)CC(O)C(F)(F)F)CCC12` (configuration not stated), the TGI is over 73.6 µM.

Regarding `Cc1ccc(O)c(-c2cscn2)c1`, the TGI was over 100 µM.

The molecule `C=CCOc1ccc(C2C(C(=O)OCC)C(=O)CC(C)(O)C2C(=O)OCC)cc1OC` (configuration not stated) gave a TGI of over 100 µM.

Consider `O=C1CSC(c2ccc(Cl)cc2Cl)N1c1ccc(F)cc1` (configuration not stated), for which the GI50 is 17.5 µM and the TGI turned out to be 32.9 µM.

Molecule `CCOC(=O)NC(=O)c1cn(CCCOC(=O)CCCCCCCCCCC(=O)OCCCn2cc(C(=O)NC(=O)OCC)c(=O)[nH]c2=O)c(=O)[nH]c1=O` registered a TGI of over 100 µM.

Take `CCC/C(Cl)=N\OC(=O)Nc1ccc(OC(F)(F)F)cc1`: the TGI amounted to 36.7 µM.

On to `CCCCCCCCCCCCCCCCCCOc1ccccc1CC(=O)OCC[N+]1(C)CCCC1`, for which the GI50 is 8.22 µM and the TGI turned out to be 22.1 µM.

As for `CC(=O)N[C@H]1CSSC[C@@H](C(N)=O)NC(=O)[C@H](C(C)C)NC(=O)[C@H](C)NC(=O)[C@H](Cc2cnc[nH]2)NC1=O`, the GI50 is over 100 µM and the TGI is over 100 µM.

`CCCCON(OC(=O)c1ccc2ccc3cccc4ccc1c2c34)C(C)=O`: the GI50 is 49.1 µM and the TGI was over 100 µM.

Regarding `CC(CO)(CO)NCCCCn1ccc2c1C(=O)c1c(c(O)c3ccccc3c1O)C2=O`, the GI50 is 8.79 µM and the TGI came out at 21.8 µM.

Take `COc1ccc(/C=C2\N=C(SC)NC2=O)cc1`: the TGI was over 100 µM.

Take `COc1cc(/C=C(\C#N)c2ccccc2)cc(OC)c1`: the TGI is over 100 µM.

`O=C1C(=Cc2ccccc2O)N=C(c2ccccc2)N1n1c(-c2ccccc2)nc2ccccc2c1=O` returned a TGI of over 100 µM.

Turning to `CC1=C(C(=O)Nc2ccc(F)c(Cl)c2)C(c2cccc(O)c2)NC(=O)N1` (configuration not stated), the GI50 was 33.3 µM and the TGI was over 100 µM.

Consider `CN(CCC#N)c1ccc(/C=C(\C#N)c2ccc(Br)cc2)cc1`, for which the GI50 is over 100 µM and the TGI was over 100 µM.

Take `NC(=O)NCc1c(C(N)=O)ncn1Cc1ccccc1`: the TGI is over 100 µM.

Molecule `O=C1[C@@H]2C(c3ccccc3F)=NO[C@@H]2C(=O)N1c1ccc(Cc2ccc(N3C(=O)[C@H]4C(c5ccccc5F)=NO[C@H]4C3=O)cc2)cc1` showed a TGI of over 100 µM.

Molecule `CC(C)(C)C(=O)CC1=Nc2ccccc2SC1(O)CC(=O)C(C)(C)C` (configuration not stated) gave a TGI of over 100 µM.

On to `Cc1cc(S(=O)(=O)Nc2nc3cc(-c4ccc(Cl)cc4)sc3c(=O)n2N)c(S)cc1Cl`, for which the TGI is over 100 µM.

For `COc1ccc2nc(NC(=O)C(=O)C(C#N)c3ccc([N+](=O)[O-])cc3)sc2c1` (configuration not stated), the TGI was over 100 µM.

Take `O=C(CN(c1ccccc1)c1ccccc1)n1nnc2ccccc21`: the TGI is over 100 µM.

For `C#C[C@]1(O)CC[C@H]2[C@@H]3CCC4=C/C(=N/OC(=O)c5cccc6c(=O)c7ccccc7[nH]c56)CC[C@@H]4[C@H]3CC[C@@]21C`, the TGI was over 100 µM.

Turning to `Nc1ccc2cc3ccc(N)cc3nc2c1`, the GI50 was 0.633 µM and the TGI is 6.77 µM [middle of 4 runs].

`CCn1c(-c2ccc(OC(C)=O)cc2)c(C)c2cc(OC(C)=O)ccc21` returned a TGI of over 100 µM.

Take `COc1cc(/C=C/c2ccc(OC)c(OC)c2)cc(OC)c1`: the TGI is over 100 µM.

As for `C=C1C(=O)C=C[C@]2(C)CC[C@H]3C(=C)C(=O)O[C@@H]3[C@@H]12`, the TGI worked out at 40 µM.

Molecule `Cn1c2ccccc2c(=O)c2cccc(C(=O)NC(CCCN=C(N)N)C(=O)O)c21` (configuration not stated) came in with a TGI of over 100 µM.

Turning to `CC(C)(C)c1cc(C(O)(C(F)(F)F)C(F)(F)F)c2c(c1)C(C(F)(F)F)(C(F)(F)F)OC(C(C)(C)C)N2` (configuration not stated), the TGI came to 16.1 µM.

`COc1ccc2c(cnc3c4cc(OC)c(OC)cc4ccc23)c1` gave a TGI of over 100 µM.

In turn, `O=C(NCO)NCOCn1c(=O)n(CO)c(=O)n(CO)c1=O` showed a TGI of over 100 µM.

`Cc1ncc(CCCN(C)C)cc1Nc1ncc2c(n1)-c1ccc(C(F)(F)F)cc1NC(=S)C2`: the GI50 was 2.5 µM and the TGI is 18.8 µM.

For the molecule `C1C[OH+]CC[OH+]CC[OH+]CC[OH+]CC[OH+]1.[Cl-].[V]`, the GI50 was 35.6 µM and the TGI is over 100 µM.

In the case of `COc1ccc2cc(C(C)C(=O)N3CCOC3=O)ccc2c1` (configuration not stated), the TGI was over 100 µM.

Regarding `Nc1ccc(-c2nc3ccc(Cc4ccc5nc(-c6ccc(N)cc6)[nH]c5c4)cc3[nH]2)cc1`, the GI50 is 4.26 µM and the TGI was determined as 16.5 µM.

As for `C[C@H](O)C(=O)N1CCC(CCn2c(Sc3cc4c(cc3Br)OCO4)nc3c(N)ncnc32)CC1`, the TGI was over 100 µM.

As to `CC/C=C\C[C@H]1C/C=C2/C(=O)C=C[C@@H]2C/C=C\CCCC(=O)O1`, the GI50 is 2.08 µM and the TGI came out at 5.87 µM.

For `ClCC[N+]12CC[N+](CCCl)(CC1)C2`, the TGI is over 100 µM.

`O=C1/C(=C/c2ccc(Cl)cc2)CSc2ccccc21` yielded a TGI of over 100 µM.

`CC1=NNC(=O)C1C(CC(=O)c1c[nH]c2ccccc12)C(=O)O` (configuration not stated) showed a TGI of over 100 µM.

For `O=C(/C=C\c1ccc(NCc2ccc(C(=O)O)cc2)cc1)CCl`, the GI50 was 17.4 µM and the TGI worked out at 32.1 µM.
